According to US20190284241A1 (Affibody, published 2019):

Target: T1, human FcRn: extracellular domain of human αFcRn in complex with human β2-microglobulin, soluble, produced in … (human, UniProt P55899 24-290; P16213 21-119)
T1 construct: Ig kappa leader cleaved upon secretion; amine-coupled to the chip in Biacore; also called hFcRn; not shown: C-terminal GS-linker and FLAG tag; C-terminal spacer and His6 tag
Experiment: SPR (Biacore); hFcRn immobilised, injected at 40, 160 and 640 nM; pH 6.0

T1 sequence (P55899 24-290, chain 1 of 2): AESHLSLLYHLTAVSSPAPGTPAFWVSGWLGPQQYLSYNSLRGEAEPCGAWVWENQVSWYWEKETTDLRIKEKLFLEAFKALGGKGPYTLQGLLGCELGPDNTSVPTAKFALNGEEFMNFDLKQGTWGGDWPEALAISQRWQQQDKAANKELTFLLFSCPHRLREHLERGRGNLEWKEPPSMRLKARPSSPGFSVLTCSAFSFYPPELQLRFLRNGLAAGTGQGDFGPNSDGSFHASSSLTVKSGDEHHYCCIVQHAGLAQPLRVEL
T1 sequence (P16213 21-119, chain 2 of 2, further chain): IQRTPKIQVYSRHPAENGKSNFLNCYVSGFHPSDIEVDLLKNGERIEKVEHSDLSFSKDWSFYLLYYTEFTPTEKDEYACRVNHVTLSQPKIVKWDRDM

B1: negative control Z03638-PP013, [Z03638]-GAP(G4S)4TS-[PP013] (designed binder)
chain: AEAKYAKELGWATWEIFNLPNLTGVQVKAFIDKLRDDPSQSSELLSEAKKLNDSQAPKGAPGGGGSGGGGSGGGGSGGGGSTSLAEAKEAANAELDSYGVSDFYKRLIDKAKTVEGVEALKDAILAALP
binding result: no binding (tested: 640 nM)
